This note sets out measurements from a collection of fitness landscapes (doi:10.1016/j.celrep.2020.107928).

The chains are these.
B1: Caulobacter ParB omega fusion; a variant is named by its letters at X, in order, B8GW30 (parent)
chain: MESVVVGEPGMSEGRRGLGRGLSALLGEVDAAPAQAPGEQLGGSREAPIEILQRNPDQPRRTFREEDLEDLSNSIREKGVLQPILVRPSPDTAGEYQIVAGERAWRAAQRAGLKTVPIMVRELDDLAVLEIGIIENVQRADLNVLEEALSYKVLMEKFERTQENIAQTIGKSXSHVANXMRLLXLPDEVQSYLVSGELTAXHARAIAAAADPVALAKQIIEGGLSVRETEALARKAPNLSAGKSKGGRPPRVKDTDTQALESDLSSVLGLDVSIDHRGSTGTLTITYATLEQLDDLCNRLTRGI

Over roughly 81,000 sequences, “one-hybrid fitness for binding parS DNA” has its median near -0.17; the highest 2% begin near 0.51. This is one part of the list. Where only a bound is given, the exact number is not on record here.

Variants of B1 are the subject of this experiment. Description: one-hybrid fitness for binding parS DNA (scaled: cognate 1, non-cognate 0); higher = stronger binding. To be noted: with parS DNA site. An outline of the steps:
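In E. coli USO, a HIS3 reporter with its site placed 19 bp from the promoter was used to select Caulobacter ParB variants randomised at four specificity codons. Growth lasted 48 hours at 37°C on histidine-free M9 containing 0.1 mM IPTG and 5 mM 3-AT. Fitness was taken as the log change in variant-to-wild-type read ratio from Illumina sequencing of pre- and post-selection plasmids, rescaled between the non-cognate and cognate sites.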
Turning to WMWS, the “one-hybrid fitness for binding parS DNA” value was not above 0.2.
Then VKSV, with not above 0.2; and GHGG, with not above 0.2; and IANS, with not above 0.2.
As for WPRF, the “one-hybrid fitness for binding parS DNA” value was not above 0.2.
Then RQNC, with 0.947.
The same measure for RQGL: not above 0.2.
Take YPAR: the “one-hybrid fitness for binding parS DNA” value was not above 0.2.
Then MSKT, with not above 0.2; and TEMY, with not above 0.2; and ISLS, with not above 0.2.
The same measure for PFLW: not above 0.2; for CAPS: not above 0.2; for ARQR: not above 0.2.
Then YMTT, with not above 0.2.
As to PYAN, the “one-hybrid fitness for binding parS DNA” value is not above 0.2.
The same measure for HLYP: not above 0.2; for LRTV: not above 0.2.
The same measure for QYMF: not above 0.2; for YVNL: not above 0.2; for VDWD: not above 0.2.
The same measure for NDAR: not above 0.2; for MHVC: not above 0.2; for SKSQ: not above 0.2.
Take ARVL: the “one-hybrid fitness for binding parS DNA” value was not above 0.2.
The same measure for YHKF: not above 0.2.
Then HDSN, with not above 0.2; and IRNP, with not above 0.2; and RFEP, with not above 0.2.
Take VDNV: the “one-hybrid fitness for binding parS DNA” value was not above 0.2.
The same measure for QFRP: not above 0.2; for TIRT: not above 0.2.
The same measure for YAVE: not above 0.2; for TEAP: not above 0.2.
The same measure for SDRT: not above 0.2; for GRNR: not above 0.2.
On to ACPN, for which the “one-hybrid fitness for binding parS DNA” value was not above 0.2.
Then KSEG, with not above 0.2; and FMAM, with not above 0.2.
On to LWPN, for which the “one-hybrid fitness for binding parS DNA” value is not above 0.2.
The same measure for SVNN: not above 0.2; for NMLC: not above 0.2.
The same measure for NHCG: not above 0.2.
Then RAID, with not above 0.2; and KCYC, with not above 0.2.
For THMY, the “one-hybrid fitness for binding parS DNA” value was not above 0.2.
In the case of LLRW, the “one-hybrid fitness for binding parS DNA” value was not above 0.2.
Then AAHN, with not above 0.2; and RQEC, with 0.829.
Then HSFT, with not above 0.2; and PILF, with not above 0.2; and ANRY, with not above 0.2.
NKSR: the “one-hybrid fitness for binding parS DNA” value is not above 0.2.
Then HVFT, with not above 0.2.
On to SVRV, for which the “one-hybrid fitness for binding parS DNA” value was not above 0.2.
The same measure for VADK: not above 0.2.
Then LGLN, with not above 0.2.
Then LYQY, with not above 0.2; and EAPE, with not above 0.2.
QGDN: the “one-hybrid fitness for binding parS DNA” value was not above 0.2.
Then VPAR, with not above 0.2; and HGFL, with not above 0.2.
Then FWTP, with not above 0.2; and LLSK, with not above 0.2; and IQVR, with not above 0.2.
Then HMTE, with not above 0.2.
With DRRA, the “one-hybrid fitness for binding parS DNA” value was not above 0.2.
The same measure for DNDS: not above 0.2; for VPCK: not above 0.2.
Then QHMM, with not above 0.2.
With HNLH, the “one-hybrid fitness for binding parS DNA” value was not above 0.2.
As to GFRD, the “one-hybrid fitness for binding parS DNA” value was not above 0.2.
The same measure for FVGE: not above 0.2.
The same measure for DSYV: not above 0.2; for VPLY: not above 0.2.
The same measure for ITHM: not above 0.2.
DFYG: the “one-hybrid fitness for binding parS DNA” value is not above 0.2.
The same measure for RSSP: not above 0.2; for KIYT: not above 0.2.
The same measure for RREW: not above 0.2; for LGPF: not above 0.2; for REIW: not above 0.2.
Take TYNM: the “one-hybrid fitness for binding parS DNA” value was not above 0.2.
Then PICM, with not above 0.2.
Then QYFE, with not above 0.2.
The same measure for MFHC: not above 0.2; for GYYC: not above 0.2; for KLAW: not above 0.2.
As to TKNA, the “one-hybrid fitness for binding parS DNA” value was not above 0.2.
The same measure for AEAL: not above 0.2; for QHAD: not above 0.2.
The same measure for PDHW: not above 0.2; for RGQK: not above 0.2; for ISRF: not above 0.2.
The same measure for QARP: not above 0.2; for DDIS: not above 0.2; for ENLR: not above 0.2.
For PSSY, the “one-hybrid fitness for binding parS DNA” value was not above 0.2.
Then MPKP, with not above 0.2.
Take GARF: the “one-hybrid fitness for binding parS DNA” value is not above 0.2.
The same measure for KYLT: not above 0.2.
Then PPHD, with not above 0.2; and YETS, with not above 0.2.
Regarding GYNV, the “one-hybrid fitness for binding parS DNA” value is not above 0.2.
The same measure for TEYR: not above 0.2.
Then RAEP, with not above 0.2; and RQYM, with 0.318; and TRIV, with not above 0.2.
For the variant RRWR, the “one-hybrid fitness for binding parS DNA” value is not above 0.2.
As to TVSG, the “one-hybrid fitness for binding parS DNA” value is not above 0.2.
The same measure for RTHD: not above 0.2; for EDEG: not above 0.2; for FANT: not above 0.2.
Then VLPA, with not above 0.2; and QYTI, with not above 0.2; and DHKC, with not above 0.2.
Then KHRM, with not above 0.2; and SIDT, with not above 0.2; and LLLR, with not above 0.2.
Regarding GHDY, the “one-hybrid fitness for binding parS DNA” value was not above 0.2.
Then TAWT, with not above 0.2; and QPVG, with not above 0.2; and HLES, with not above 0.2.
Then QCGY, with not above 0.2; and YGNR, with not above 0.2; and GVFT, with not above 0.2.
The same measure for LTSA: not above 0.2.
As for FRLC, the “one-hybrid fitness for binding parS DNA” value is not above 0.2.
Then SYRV, with not above 0.2.
The same measure for LRAC: not above 0.2.
Then CETS, with not above 0.2; and WNPV, with not above 0.2.
For the variant NRQK, the “one-hybrid fitness for binding parS DNA” value is not above 0.2.
In the case of RKDA, the “one-hybrid fitness for binding parS DNA” value is 0.536.
Turning to PQSG, the “one-hybrid fitness for binding parS DNA” value was not above 0.2.
As for RGMQ, the “one-hybrid fitness for binding parS DNA” value was not above 0.2.
With QGNI, the “one-hybrid fitness for binding parS DNA” value is not above 0.2.
Then STGT, with not above 0.2.
Then TDCG, with not above 0.2; and RYNQ, with not above 0.2.
The same measure for PNYC: not above 0.2; for ETTT: not above 0.2; for LGNW: not above 0.2.
Consider HCRR, for which the “one-hybrid fitness for binding parS DNA” value is not above 0.2.
Regarding VMQT, the “one-hybrid fitness for binding parS DNA” value was not above 0.2.
Then LYNV, with not above 0.2.
In the case of SPVY, the “one-hybrid fitness for binding parS DNA” value is not above 0.2.
The same measure for QKSI: not above 0.2.
Take ARVG: the “one-hybrid fitness for binding parS DNA” value was not above 0.2.
Then VKRM, with not above 0.2; and SEGC, with not above 0.2.
The same measure for VVVK: not above 0.2; for GNVS: not above 0.2.
